# Measured values as given in the supplement of paper PMC10037445.
# Whole data set: some 2,900 compounds, median “NF-kB SEAP reporter activity, fold change vs agonist alone” near 0.99, cut for the highest 2% near 2.6. The list shows a part of the results.
# Assays:
# RAW-Dual [1] = assay: NF-kB SEAP reporter activity, fold change vs agonist alone; higher = enhanced NF-kB activity; details: library stock concentration (final ~1000-fold dilution): 10 mM
# In short: (§1)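 Supernatant from RAW-Dual macrophages was read after 20 hours for IRF by QuantiLuc luminescence and for NF-κB by QuantiBlue absorbance at 620 nm. The cells (50,000 cells/well in DMEM, 384-well plates, 37 °C, 5% CO2) had received 50 nL of library stock by pin tool and, 1 h later, a PRR agonist. Reporter activity is expressed relative to agonist-alone wells as fold change, and wells were flagged cytotoxic if IncuCyte confluency was under 70% of agonist controls in both mask sets.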
# RAW-Dual [2] = assay: NF-kB SEAP reporter activity, fold change vs agonist alone; cytotoxicity flag (confluency mask): not cytotoxic; higher = enhanced NF-kB activity
# In short: as §1
# RAW-Dual [3] = assay: NF-kB SEAP reporter activity, fold change vs agonist alone; cytotoxicity flag (confluency mask): cytotoxic (confluency <70% of control); higher = enhanced NF-kB activity
# In short: as §1
# [4] = cytotoxicity flag (confluency mask): not cytotoxic, agonist: Imiquimod (TLR7) […]
# [5] = cytotoxicity flag (confluency mask): not cytotoxic, agonist: MPLA (TLR4) […]
# [6] = agonist: ODN 1826 (TLR9) 0.5 ug/mL
# [7] = agonist: Pam2CSK4 (TLR2/6) 0.1 ug/mL
# [8] = agonist: Pam3CSK4 (TLR2/1) 0.1 ug/mL
# [9] = cytotoxicity flag (confluency mask): cytotoxic (confluency <70% of control), agonist: Imiquimod (TLR7) […]
# [10] = cytotoxicity flag (confluency mask): cytotoxic (confluency <70% of control), agonist: MPLA (TLR4) […]
compound,measurement,setting,value
Cl.Cl.Clc1ccc(Nc2nnc(Cc3ccncc3)c3ccccc23)cc1,NF-kB SEAP reporter activity,RAW-Dual [1]; [4],0.792
same,NF-kB SEAP reporter activity,RAW-Dual [1]; [5],0.871
Fc1ccc(Cl)cc1-c1nc(Nc2ccncc2)c2nccnc2n1,NF-kB SEAP reporter activity,RAW-Dual [1]; [4],0.948
same,NF-kB SEAP reporter activity,RAW-Dual [1]; [5],1.14
Fc1ccc(Cl)cc1-c1nc(Nc2ccncc2)c2nccnc2n1 (library stock concentration (final ~1000-fold dilution): 10 mM),NF-kB SEAP reporter activity,RAW-Dual [2]; agonist: LPS (TLR4) 0.1 ug/mL,1.34
same,NF-kB SEAP reporter activity,RAW-Dual [2]; [6],0.818
same,NF-kB SEAP reporter activity,RAW-Dual [2]; [7],0.725
same,NF-kB SEAP reporter activity,RAW-Dual [2]; [8],0.521
O=C(O)COCCN1CCN(C(c2ccccc2)c2ccc(Cl)cc2)CC1 (configuration not stated),NF-kB SEAP reporter activity,RAW-Dual [1]; [5],1.09
O=C(O)COCCN1CCN(C(c2ccccc2)c2ccc(Cl)cc2)CC1 (configuration not stated) (library stock concentration (final ~1000-fold dilution): 10 mM),NF-kB SEAP reporter activity,RAW-Dual [2]; agonist: LPS (TLR4) 0.1 ug/mL,0.999
same,NF-kB SEAP reporter activity,RAW-Dual [2]; [6],1.02
same,NF-kB SEAP reporter activity,RAW-Dual [2]; [7],1.11
same,NF-kB SEAP reporter activity,RAW-Dual [2]; [8],0.749
Cc1cc(C)c(-c2csc(NC(=O)c3ccccc3)n2)c(C)c1 (library stock concentration (final ~1000-fold dilution): 10 mM),NF-kB SEAP reporter activity,RAW-Dual [2]; agonist: LPS (TLR4) 0.1 ug/mL,1.87
same,NF-kB SEAP reporter activity,RAW-Dual [2]; [6],0.534
same,NF-kB SEAP reporter activity,RAW-Dual [2]; [7],0.742
same,NF-kB SEAP reporter activity,RAW-Dual [2]; [8],0.819
Cc1cc(C)c(-c2csc(NC(=O)c3ccccc3)n2)c(C)c1,NF-kB SEAP reporter activity,RAW-Dual [1]; [4],0.838
same,NF-kB SEAP reporter activity,RAW-Dual [1]; [5],0.953
CC(C)NCC(C(=O)N1CCN(c2ncnc3c2C(C)CC3O)CC1)c1ccc(Cl)cc1 (configuration not stated) (library stock concentration (final ~1000-fold dilution): 10 mM),NF-kB SEAP reporter activity,RAW-Dual [2]; agonist: LPS (TLR4) 0.1 ug/mL,0.942
same,NF-kB SEAP reporter activity,RAW-Dual [2]; [6],0.996
same,NF-kB SEAP reporter activity,RAW-Dual [2]; [7],1.15
same,NF-kB SEAP reporter activity,RAW-Dual [2]; [8],1.11
CC(C)NCC(C(=O)N1CCN(c2ncnc3c2C(C)CC3O)CC1)c1ccc(Cl)cc1 (configuration not stated),NF-kB SEAP reporter activity,RAW-Dual [1]; [4],1.27
same,NF-kB SEAP reporter activity,RAW-Dual [1]; [5],1.13
Cc1nnsc1C(=O)Nc1ccc(-n2nc(C(F)(F)F)cc2C(F)(F)F)cc1,NF-kB SEAP reporter activity,RAW-Dual [1]; [9],0.853
same,NF-kB SEAP reporter activity,RAW-Dual [1]; [10],1
Cc1nnsc1C(=O)Nc1ccc(-n2nc(C(F)(F)F)cc2C(F)(F)F)cc1 (library stock concentration (final ~1000-fold dilution): 10 mM),NF-kB SEAP reporter activity,RAW-Dual [3]; agonist: LPS (TLR4) 0.1 ug/mL,0.794
same,NF-kB SEAP reporter activity,RAW-Dual [3]; [6],0.63
same,NF-kB SEAP reporter activity,RAW-Dual [3]; [7],0.374
same,NF-kB SEAP reporter activity,RAW-Dual [3]; [8],0.307
C=CC(=O)Nc1cccc(Nc2nc(Nc3ccc(Oc4ccnc(C(=O)NC)c4)cc3)ncc2F)c1,NF-kB SEAP reporter activity,RAW-Dual [1]; [4],1.36
same,NF-kB SEAP reporter activity,RAW-Dual [1]; [5],2.27
C=CC(=O)Nc1cccc(Nc2nc(Nc3ccc(Oc4ccnc(C(=O)NC)c4)cc3)ncc2F)c1 (library stock concentration (final ~1000-fold dilution): 10 mM),NF-kB SEAP reporter activity,RAW-Dual [2]; agonist: LPS (TLR4) 0.1 ug/mL,1.14
same,NF-kB SEAP reporter activity,RAW-Dual [2]; [6],2.1
same,NF-kB SEAP reporter activity,RAW-Dual [2]; [7],0.379
same,NF-kB SEAP reporter activity,RAW-Dual [2]; [8],0.886
CCCOC(=O)c1cc(O)c(O)c(O)c1 (library stock concentration (final ~1000-fold dilution): 10 mM),NF-kB SEAP reporter activity,RAW-Dual [2]; agonist: LPS (TLR4) 0.1 ug/mL,1.37
same,NF-kB SEAP reporter activity,RAW-Dual [2]; [6],0.717
same,NF-kB SEAP reporter activity,RAW-Dual [2]; [7],0.872
same,NF-kB SEAP reporter activity,RAW-Dual [2]; [8],0.892
CCCOC(=O)c1cc(O)c(O)c(O)c1,NF-kB SEAP reporter activity,RAW-Dual [1]; [5],1.32
CC(C)c1cc(-c2n[nH]c(=O)n2-c2ccc3c(ccn3C)c2)c(O)cc1O (library stock concentration (final ~1000-fold dilution): 10 mM),NF-kB SEAP reporter activity,RAW-Dual [3]; agonist: LPS (TLR4) 0.1 ug/mL,0.349
same,NF-kB SEAP reporter activity,RAW-Dual [3]; [6],0.25
same,NF-kB SEAP reporter activity,RAW-Dual [3]; [7],0.0897
same,NF-kB SEAP reporter activity,RAW-Dual [3]; [8],0.148
CC(C)c1cc(-c2n[nH]c(=O)n2-c2ccc3c(ccn3C)c2)c(O)cc1O,NF-kB SEAP reporter activity,RAW-Dual [1]; [9],0.313
same,NF-kB SEAP reporter activity,RAW-Dual [1]; [10],0.713
COC1CCC(N2C(=O)CNc3ncc(-c4ccc(C(C)(C)O)nc4)nc32)CC1 (configuration not stated),NF-kB SEAP reporter activity,RAW-Dual [1]; [4],0.711
same,NF-kB SEAP reporter activity,RAW-Dual [1]; [5],0.53
COC1CCC(N2C(=O)CNc3ncc(-c4ccc(C(C)(C)O)nc4)nc32)CC1 (configuration not stated) (library stock concentration (final ~1000-fold dilution): 10 mM),NF-kB SEAP reporter activity,RAW-Dual [2]; agonist: LPS (TLR4) 0.1 ug/mL,0.463
same,NF-kB SEAP reporter activity,RAW-Dual [2]; [6],0.349
same,NF-kB SEAP reporter activity,RAW-Dual [2]; [7],0.719
same,NF-kB SEAP reporter activity,RAW-Dual [2]; [8],0.458
NS(=O)(=O)OC[C@H]1C[C@@H](Nc2ccnc3cc(-c4cccc(SC(F)(F)F)c4)nn23)[C@H](O)[C@@H]1O (library stock concentration (final ~1000-fold dilution): 10 mM),NF-kB SEAP reporter activity,RAW-Dual [3]; agonist: LPS (TLR4) 0.1 ug/mL,0.308
same,NF-kB SEAP reporter activity,RAW-Dual [3]; [6],0.19
same,NF-kB SEAP reporter activity,RAW-Dual [3]; [7],0.0814
same,NF-kB SEAP reporter activity,RAW-Dual [3]; [8],0.152
NS(=O)(=O)OC[C@H]1C[C@@H](Nc2ccnc3cc(-c4cccc(SC(F)(F)F)c4)nn23)[C@H](O)[C@@H]1O,NF-kB SEAP reporter activity,RAW-Dual [1]; [9],0.145
same,NF-kB SEAP reporter activity,RAW-Dual [1]; [10],0.255
CCCc1nn(C)c2c(=O)[nH]c(-c3cc(S(=O)(=O)N4CCN(C)CC4)ccc3OCC)nc12.CS(=O)(=O)O,NF-kB SEAP reporter activity,RAW-Dual [1]; [5],1.05
CCCc1nn(C)c2c(=O)[nH]c(-c3cc(S(=O)(=O)N4CCN(C)CC4)ccc3OCC)nc12.CS(=O)(=O)O (library stock concentration (final ~1000-fold dilution): 10 mM),NF-kB SEAP reporter activity,RAW-Dual [2]; agonist: LPS (TLR4) 0.1 ug/mL,1.32
same,NF-kB SEAP reporter activity,RAW-Dual [2]; [6],1.15
same,NF-kB SEAP reporter activity,RAW-Dual [2]; [7],0.846
same,NF-kB SEAP reporter activity,RAW-Dual [2]; [8],0.791
O=C1c2ccccc2C(=O)C1c1ccc(Cl)cc1 (library stock concentration (final ~1000-fold dilution): 10 mM),NF-kB SEAP reporter activity,RAW-Dual [2]; agonist: LPS (TLR4) 0.1 ug/mL,1.14
same,NF-kB SEAP reporter activity,RAW-Dual [2]; [6],0.946
same,NF-kB SEAP reporter activity,RAW-Dual [2]; [7],0.939
same,NF-kB SEAP reporter activity,RAW-Dual [2]; [8],1.3
O=C1c2ccccc2C(=O)C1c1ccc(Cl)cc1,NF-kB SEAP reporter activity,RAW-Dual [1]; [4],0.967
same,NF-kB SEAP reporter activity,RAW-Dual [1]; [5],1.35
O=c1c(OC2OC(CO)C(O)C(O)C2O)c(-c2ccc(O)c(O)c2)oc2cc(O)cc(O)c12 (configuration not stated) (library stock concentration (final ~1000-fold dilution): 10 mM),NF-kB SEAP reporter activity,RAW-Dual [2]; agonist: LPS (TLR4) 0.1 ug/mL,1.18
same,NF-kB SEAP reporter activity,RAW-Dual [2]; [6],1.07
same,NF-kB SEAP reporter activity,RAW-Dual [2]; [7],1.03
same,NF-kB SEAP reporter activity,RAW-Dual [2]; [8],1.06
O=c1c(OC2OC(CO)C(O)C(O)C2O)c(-c2ccc(O)c(O)c2)oc2cc(O)cc(O)c12 (configuration not stated),NF-kB SEAP reporter activity,RAW-Dual [1]; [4],1.04
same,NF-kB SEAP reporter activity,RAW-Dual [1]; [5],0.976
